# Source: ChEMBL document CHEMBL5606460, “ASAP - DENV-2 NS2B-NS3 protease fluorescence single point” (2024)
# In all, about 2,000 compounds went through this assay and about 110 (5.5%) showed an effect of 50% or more. The list shows a part of the results.
# Target: Genome polyprotein (dengue virus type 2) (UniProt P29990)
# [1] = Thailand/16681/1984, Concentration 25.0 uM, Number of replicates 1.0
smiles,measurement,setting,value
C[C@H](NC(=O)C1CCN(c2ccc(C=O)cc2)CC1)c1ccc2c(c1)OCCCO2,inhibition,[1],14%
N#Cc1c(Cl)cccc1NC(=O)C1CCN(c2ccc(C=O)cc2)CC1,inhibition,[1],14.4%
CCn1ccnc(N2CC[C@H](C#N)C2)c1=O,inhibition,"Thailand/16681/1984, Concentration 50.0 uM, Number of replicates 2.0, Standard deviation 0.9992596313447866 %",7.72%
same,inhibition,"Thailand/16681/1984, Concentration 100.0 uM, Number of replicates 2.0, Standard deviation 0.8098574261082263 %",16.8%
same,inhibition,"Thailand/16681/1984, Concentration 200.0 uM, Number of replicates 2.0, Standard deviation 0.40329611273019517 %",29.7%
Cc1cc(N)c2cccc(Cl)c2n1,inhibition,"Thailand/16681/1984, Concentration 49.95 uM, Number of replicates 2.0, Standard deviation 5.503288371579723 %",-4.7%
same,inhibition,"Thailand/16681/1984, Concentration 99.9 uM, Number of replicates 2.0, Standard deviation 6.432020014535411 %",-3.67%
O=Cc1ccc(N2CCC(C(=O)N3C[C@@H]4C[C@H](C3)c3cccc(=O)n3C4)CC2)cc1,inhibition,[1],12.4%
CCc1cc(Br)ccc1NC(=O)C1CCN(c2ccc(C=O)cc2)CC1,inhibition,[1],14.5%
Cc1cnccc1NC(=O)c1cccc(-c2nccs2)c1,inhibition,"Thailand/16681/1984, Concentration 49.5 uM, Number of replicates 2.0, Standard deviation 4.204363846532359 %",-3.63%
same,inhibition,"Thailand/16681/1984, Concentration 99.01 uM, Number of replicates 2.0, Standard deviation 2.2108405026778724 %",-0.191%
same,inhibition,"Thailand/16681/1984, Concentration 198.0 uM, Number of replicates 2.0, Standard deviation 1.9886941158052591 %",0.611%
CC(C)(CO)NC(=O)c1cc(Cl)cc(NC(=O)Cc2cccnc2)c1,inhibition,"Thailand/16681/1984, Concentration 49.5 uM, Number of replicates 2.0, Standard deviation 2.592685808271054 %",-2.73%
same,inhibition,"Thailand/16681/1984, Concentration 99.01 uM, Number of replicates 2.0, Standard deviation 0.26050899629625984 %",-2.67%
same,inhibition,"Thailand/16681/1984, Concentration 198.0 uM, Number of replicates 2.0, Standard deviation 0.9505923281944691 %",-2.17%
CN(Cc1cccc(F)c1F)C(=O)C1CCN(c2ccc(C=O)cc2)CC1,inhibition,[1],14.5%
CC(=O)N[C@H](C(=O)Nc1cccc(C(N)=O)c1)c1ccc(OCc2ccccc2)cc1,inhibition,"Thailand/16681/1984, Concentration 49.5 uM, Number of replicates 2.0, Standard deviation 1.41100239398505 %",-2.21%
same,inhibition,"Thailand/16681/1984, Concentration 99.01 uM, Number of replicates 2.0, Standard deviation 6.402498423083348 %",0.486%
same,inhibition,"Thailand/16681/1984, Concentration 198.0 uM, Number of replicates 2.0, Standard deviation 5.599350943845451 %",0.73%
O=Cc1ccc(N2CCC(C(=O)N3CCC(c4ccncc4)CC3)CC2)cc1,inhibition,[1],14.2%
Cc1cc(CO)c2cccc(CC(=O)N3CCO[C@@H](CN)C3)c2n1,inhibition,"Thailand/16681/1984, Concentration 49.95 uM, Number of replicates 2.0, Standard deviation 2.313340500291457 %",-1.6%
same,inhibition,"Thailand/16681/1984, Concentration 99.9 uM, Number of replicates 2.0, Standard deviation 6.901214410786329 %",6.49%
c1ccc2c([C@H]3CCN(Cc4ccn[nH]4)C3)c[nH]c2c1,inhibition,"Thailand/16681/1984, Concentration 49.5 uM, Number of replicates 2.0, Standard deviation 1.3804677608821805 %",-4.83%
same,inhibition,"Thailand/16681/1984, Concentration 99.01 uM, Number of replicates 2.0, Standard deviation 0.8353970676066758 %",-4.86%
same,inhibition,"Thailand/16681/1984, Concentration 198.0 uM, Number of replicates 2.0, Standard deviation 1.6563547935009133 %",-3.79%
O=Cc1ccc(N2CCC(C(=O)Nc3nnc(C(F)(F)F)s3)CC2)cc1,inhibition,[1],12.7%
O=Cc1ccc(N2CCC(C(=O)N[C@H](CO)[C@H](O)c3ccc([N+](=O)[O-])cc3)CC2)cc1,inhibition,[1],13.1%
O=Cc1ccc(N2CCC(C(=O)NCCNC(=O)c3ccc(F)cc3)CC2)cc1,inhibition,[1],14.8%
CC(C)Nc1nc2ccc(C(=O)NCc3cnn(C)c3)cc2[nH]1,inhibition,"Thailand/16681/1984, Concentration 49.5 uM, Number of replicates 2.0, Standard deviation 2.4534347281334856 %",-3.32%
same,inhibition,"Thailand/16681/1984, Concentration 99.01 uM, Number of replicates 2.0, Standard deviation 2.252490861313308 %",-2.73%
same,inhibition,"Thailand/16681/1984, Concentration 198.0 uM, Number of replicates 2.0, Standard deviation 1.9859869815785558 %",-2.52%
CNC(=O)C1(CNS(=O)(=O)c2ccc(Oc3ccccc3Cl)cc2)CCCC1,inhibition,"Thailand/16681/1984, Concentration 49.5 uM, Number of replicates 2.0, Standard deviation 0.8825067918234245 %",-2.79%
same,inhibition,"Thailand/16681/1984, Concentration 99.01 uM, Number of replicates 2.0, Standard deviation 1.1142183638187368 %",-1.51%
same,inhibition,"Thailand/16681/1984, Concentration 198.0 uM, Number of replicates 2.0, Standard deviation 0.3423230124618678 %",0.279%
Cc1cc(CO)c2cccc(Cc3cccc(NC(=O)c4nc(C5CCNCC5)oc4C)c3)c2n1,inhibition,"Thailand/16681/1984, Concentration 49.95 uM, Number of replicates 2.0, Standard deviation 2.427412589513284 %",-2.68%
same,inhibition,"Thailand/16681/1984, Concentration 99.9 uM, Number of replicates 2.0, Standard deviation 2.040383474434353 %",-3.1%
O=Cc1ccc(N2CCC(C(=O)N(Cc3ccc4c(c3)OCO4)C3CCCC3)CC2)cc1,inhibition,[1],15.8%
c1ccc2c([C@H]3CCN(Cc4cn[nH]c4)C3)c[nH]c2c1,inhibition,"Thailand/16681/1984, Concentration 49.5 uM, Number of replicates 2.0, Standard deviation 0.9115794139717239 %",-0.8%
same,inhibition,"Thailand/16681/1984, Concentration 99.01 uM, Number of replicates 2.0, Standard deviation 0.44265802393203485 %",-0.949%
same,inhibition,"Thailand/16681/1984, Concentration 198.0 uM, Number of replicates 2.0, Standard deviation 0.8695579523351499 %",0.351%
Cc1cc(CO)c2cccc(Cc3cccc(NC(=O)Cc4c[nH]c5ccccc45)c3)c2n1,inhibition,"Thailand/16681/1984, Concentration 49.95 uM, Number of replicates 2.0, Standard deviation 0.8412168519630298 %",-0.469%
same,inhibition,"Thailand/16681/1984, Concentration 99.9 uM, Number of replicates 2.0, Standard deviation 1.20193607081355 %",3.26%
O=C(NCc1n[nH]c2c1CCCC2)[C@@]1(c2ccc(F)cc2)CCCNC1,inhibition,"Thailand/16681/1984, Concentration 49.5 uM, Number of replicates 2.0, Standard deviation 2.075637416605533 %",-2.05%
same,inhibition,"Thailand/16681/1984, Concentration 99.01 uM, Number of replicates 2.0, Standard deviation 0.06871580034367653 %",-1.46%
same,inhibition,"Thailand/16681/1984, Concentration 198.0 uM, Number of replicates 2.0, Standard deviation 0.6981737355712393 %",-0.123%
